Screen size: about 360,000 compounds; about 16,000 (4.4%) were called active. Inconclusive results, whose numbers are uncertain, are shown with a selection of clear calls. The call rests on the fitted dose curve; in most records, active means well fitted inhibition curve with a large enough effect; inconclusive means small, poorly fitted or top-dose-only effect; inactive means no such curve, though single readings can be large or run the other way. Where the call is inconclusive, the potency comes from a doubtful curve fit. Where a structure was tested more than once in an assay, its records may differ in their call.
Biological target: Bromodomain adjacent to zinc finger domain protein 2B (Homo sapiens) (UniProt Q9UIF8)
Chain of UniProt Q9UIF8 (Q9UIF8 whole entry, looked up, the tested form may be a part): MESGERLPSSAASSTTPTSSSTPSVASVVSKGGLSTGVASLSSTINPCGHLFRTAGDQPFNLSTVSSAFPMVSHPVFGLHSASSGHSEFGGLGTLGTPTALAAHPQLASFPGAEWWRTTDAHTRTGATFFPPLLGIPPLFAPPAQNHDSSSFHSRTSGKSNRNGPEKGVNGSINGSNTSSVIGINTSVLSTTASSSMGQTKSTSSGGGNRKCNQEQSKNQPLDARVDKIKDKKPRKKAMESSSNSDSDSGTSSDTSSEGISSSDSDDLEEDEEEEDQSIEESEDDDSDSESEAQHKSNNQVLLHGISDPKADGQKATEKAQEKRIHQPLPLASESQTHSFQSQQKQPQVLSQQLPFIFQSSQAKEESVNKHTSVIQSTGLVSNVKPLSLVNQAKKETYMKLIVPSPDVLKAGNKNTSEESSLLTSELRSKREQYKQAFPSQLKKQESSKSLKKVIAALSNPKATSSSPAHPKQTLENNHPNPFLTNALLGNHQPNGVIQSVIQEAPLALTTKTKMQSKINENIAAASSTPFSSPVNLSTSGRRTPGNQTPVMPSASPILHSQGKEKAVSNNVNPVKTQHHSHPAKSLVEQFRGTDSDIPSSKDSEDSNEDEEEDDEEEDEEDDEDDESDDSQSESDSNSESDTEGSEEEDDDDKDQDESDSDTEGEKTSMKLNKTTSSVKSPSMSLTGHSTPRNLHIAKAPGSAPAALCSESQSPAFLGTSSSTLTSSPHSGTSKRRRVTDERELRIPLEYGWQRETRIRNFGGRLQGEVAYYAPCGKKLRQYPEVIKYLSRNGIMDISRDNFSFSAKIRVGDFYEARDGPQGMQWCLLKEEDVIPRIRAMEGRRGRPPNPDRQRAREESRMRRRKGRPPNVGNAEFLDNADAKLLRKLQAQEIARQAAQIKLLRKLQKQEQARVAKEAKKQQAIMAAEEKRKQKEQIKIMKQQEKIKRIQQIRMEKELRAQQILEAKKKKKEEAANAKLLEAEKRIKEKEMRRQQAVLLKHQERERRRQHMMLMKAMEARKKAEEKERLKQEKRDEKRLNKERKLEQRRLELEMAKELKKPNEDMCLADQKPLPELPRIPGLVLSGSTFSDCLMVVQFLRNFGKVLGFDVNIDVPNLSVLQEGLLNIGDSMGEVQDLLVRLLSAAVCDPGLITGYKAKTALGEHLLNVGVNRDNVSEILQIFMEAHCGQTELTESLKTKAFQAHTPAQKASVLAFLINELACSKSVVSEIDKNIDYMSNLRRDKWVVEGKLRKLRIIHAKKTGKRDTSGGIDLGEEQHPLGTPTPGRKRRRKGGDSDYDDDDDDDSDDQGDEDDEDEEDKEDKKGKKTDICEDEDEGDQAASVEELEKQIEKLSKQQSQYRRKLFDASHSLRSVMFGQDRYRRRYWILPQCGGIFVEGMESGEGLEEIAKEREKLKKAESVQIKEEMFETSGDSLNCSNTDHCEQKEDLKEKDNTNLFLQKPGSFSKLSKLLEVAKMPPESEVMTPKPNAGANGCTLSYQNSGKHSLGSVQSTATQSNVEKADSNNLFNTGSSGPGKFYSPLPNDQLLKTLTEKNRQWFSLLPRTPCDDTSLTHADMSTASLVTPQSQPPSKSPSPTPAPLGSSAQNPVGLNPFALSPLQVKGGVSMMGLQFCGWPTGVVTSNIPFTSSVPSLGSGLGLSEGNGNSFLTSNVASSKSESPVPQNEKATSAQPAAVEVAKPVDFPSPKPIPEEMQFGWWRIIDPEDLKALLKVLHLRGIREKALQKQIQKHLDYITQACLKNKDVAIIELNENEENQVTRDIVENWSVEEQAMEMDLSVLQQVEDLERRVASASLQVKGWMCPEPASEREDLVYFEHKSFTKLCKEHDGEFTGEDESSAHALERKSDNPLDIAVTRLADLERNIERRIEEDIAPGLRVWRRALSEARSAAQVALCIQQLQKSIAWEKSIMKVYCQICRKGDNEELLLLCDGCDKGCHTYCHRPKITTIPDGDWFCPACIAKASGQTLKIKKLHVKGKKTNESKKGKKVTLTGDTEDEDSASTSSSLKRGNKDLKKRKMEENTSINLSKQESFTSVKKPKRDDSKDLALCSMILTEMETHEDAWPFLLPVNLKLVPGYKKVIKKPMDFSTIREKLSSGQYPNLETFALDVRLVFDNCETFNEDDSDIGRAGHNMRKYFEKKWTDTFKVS
Assay: qHTS Assay for Inhibitors of BAZ2B; further: nearly all actives have a fitted effect of over 60% in size
Conditions: AlphaScreen BAZ2B-H3K14Ac peptide displacement; series mostly up to 114 µM
Outline: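 Inhibition is scored as reduced AlphaScreen emission. The BAZ2B/b-H3(5-23)K14Ac complex (50 nM each) in PBS pH 7.4, 0.01% Tween-20 meets compound (up to 110 uM) for 30 min at RT before bead addition.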
Potency means the concentration at half of the fitted maximal effect; tags describe the fitted curve by direction and shape.

| SMILES | Potency |
| --- | --- |
| CCOC(=O)N1CCN(C(=O)C2CCCN(S(=O)(=O)c3ccc(C)cc3)C2)CC1 (stereo unspecified) | inconclusive: 56.2 µM [inhibitor, partial curve] |
| CC1Cc2ccccc2N1S(=O)(=O)c1cccc(C(=O)N2CCN(c3ncccn3)CC2)c1 (stereo unspecified) | inconclusive: 79.4 µM [inhibitor, single point] |
| CCN1CCN(C(=O)c2cnn(-c3ccc(F)cc3F)c2C2CCN(C(=O)OC(C)(C)C)CC2)CC1 | inactive |
| Cc1nnc(NC(=O)C2CC(=O)N(c3ccc4c(c3)OCCO4)C2)s1 (stereo unspecified) | inactive |
| O=C(NC(=S)N1CCN(c2ccc(O)cc2)CC1)c1cccs1 | inconclusive: 79.4 µM [inhibitor, single point] |
| O=C(Nc1ccccc1C(=O)N1CCN(c2ccccc2)CC1)c1ccco1 | inactive |
| Cc1cccc(-n2c(N)cc(=O)nc2SCC(=O)Nc2ccc(F)cc2)c1C | inactive |
| Cc1cc(OCc2cc(C(=O)N(Cc3nccn3C)C(C)C)no2)cc(C)c1Cl | inconclusive: 39.8 µM [inhibitor, partial curve] |
| Cc1c(N2C(=O)c3ccc4c5c(ccc(c35)C2=O)CC4)c(=O)n(-c2ccccc2)n1C | active: 56.2 µM |
| Oc1ccc(/C=N/Nc2ccc3ccccc3c2)c(O)c1 | inconclusive: 31.6 µM [inhibitor, partial curve] |
| COc1ccc2cc(CO)n(C)c2c1 | inconclusive: 89.1 µM [inhibitor, single point] |
| CCOC(CNC(=O)c1ccc(N2CCc3ccccc32)c([N+](=O)[O-])c1)OCC | active: 39.8 µM |
| O=S(=O)(/N=C(/c1ccccc1Cl)N1CCOCC1)c1ccccc1 | inactive |
| COc1ccc(C(=O)c2ccc(OC)c(N)c2)cc1N | inconclusive: 89.1 µM [inhibitor, single point] |
| O=C(CNC(=O)c1ccc(Cl)cc1)NCCCn1ccnc1 | active: 79.4 µM |
| O=C1CC(c2cc(F)cc(F)c2)c2cc3c(cc2N1)OCO3 (stereo unspecified) | inconclusive: 70.8 µM [inhibitor, single point] |
| COC(=O)C1=C(O)/C(=C\c2ccc(OCC(=O)Nc3ccccc3)cc2)N=C1C | inactive |
| CN(C)/C=N/c1sc2c(c1C(N)=O)CCCC2 | inconclusive: 70.8 µM [inhibitor, single point] |
| N#Cc1ccccc1NC(=O)CSc1nccn1CCc1ccccc1 | inconclusive: 70.8 µM [inhibitor, single point] |
| Cc1ccnc(NC(=O)Cc2ccc([N+](=O)[O-])cc2)c1 | active: 50.1 µM |
| CCCCNc1ccc(C(=O)OCCN(C)C)cc1 | inconclusive: 100 µM [inhibitor, partial curve] |
| CN1CCN(c2ccccc2NC(=O)c2ccc(N3CCCC3)c([N+](=O)[O-])c2)CC1 | inconclusive: 39.8 µM [inhibitor, partial curve] |
| Cc1cc(N2CCN(C(=O)c3ccco3)CC2)nc(-c2ccccc2)n1 | inconclusive: 70.8 µM [inhibitor, single point] |

| SMILES | Potency |
| --- | --- |
| CCOC(=O)CCC(=O)Nc1nnc2n1CCS2 | inconclusive: 89.1 µM [inhibitor, single point] |
| Cc1c(CCO)c(=O)n(-c2ccccc2)n1S(=O)(=O)c1c(Cl)cc(Cl)cc1Cl | inconclusive: 89.1 µM [inhibitor, single point] |
| COc1cc(/C=N/N=C2/SCC(=O)N2c2ccc(O)cc2)ccc1O | inactive |
| CCOC(=O)C(C)N1C(=O)S/C(=C/c2cc(C)n(-c3ccccn3)c2C)C1=O (stereo unspecified) | inconclusive: 89.1 µM [inhibitor, single point] |
| CCN1CCN(Cc2ccc(NC(=O)c3ccc(C)c(NC(=O)c4cccc5[nH]ccc45)c3)cc2C(F)(F)F)CC1 | inconclusive: 79.4 µM [inhibitor, single point] |
| Cc1ccc(C(=O)Nc2nnc(S(=O)(=O)N3CCCCCC3)s2)cc1 | active: 10 µM |
| C/C(=N\NC(=O)c1ccc(NS(=O)(=O)c2cccs2)cc1)c1ccc2c(c1)OCO2 | inconclusive: 79.4 µM [inhibitor, single point] |
| CCOC(=O)c1cc(CC)sc1/N=C/C1C(=O)CC(C)(C)CC1=O | inactive |
| CCN(CC(=O)N1CCCCCC1)S(=O)(=O)c1ccc(Cl)cc1 | inactive |
| CN(C)c1ccc(C=Nc2ccc(N(C)C)cc2)cc1 | active: 20 µM |
| O=C1CCC(C(=O)Nc2ccccc2N2CCCC2)=NN1 | inconclusive: 79.4 µM [inhibitor, single point] |
| CCC(CC)C(=O)Nc1nnc(S(=O)(=O)N2CCc3ccccc32)s1 | inconclusive: 11.2 µM [inhibitor, full curve] |
| CNC(=O)c1nnn(Cc2ccccc2)c1NC(=O)C(F)(F)F | inconclusive: 89.1 µM [inhibitor, single point] |
| O=C(NOC(=O)c1cc(Br)ccc1Cl)c1cccs1 | inconclusive: 79.4 µM [inhibitor, single point] |
| COc1ccc(N(CC(=O)NCc2ccco2)S(=O)(=O)c2ccc(C)cc2)cc1 | inconclusive: 56.2 µM [inhibitor, partial curve] |
| O=C(N/N=C/c1cc([N+](=O)[O-])ccc1O)c1cccc(NC(=O)c2cccc(Cl)c2)c1 | inactive |
| Cc1ccc(CN(C(=O)COc2ccccc2[N+](=O)[O-])c2ccccn2)cc1 | inconclusive: 89.1 µM [inhibitor, single point] |
| N#C/C(=C\c1coc2ccccc2c1=O)C(N)=S | inconclusive: 79.4 µM [inhibitor, single point] |
| COc1ccccc1C(=O)N/C(=C\c1cn(C)c2ccccc12)C(=O)NCCCn1ccnc1 | inconclusive: 50.1 µM [inhibitor, partial curve] |
| Cc1ccc(C(=O)NCc2ccco2)c(C)c1 | inactive |
| CCOc1cccc(C(=O)N(Cc2cccc(F)c2)C2CCS(=O)(=O)C2)c1 (stereo unspecified) | inactive |
| COC(=O)CN1C(c2ccccc2O)Nc2ccc(Br)cc2C1c1ccccc1 (stereo unspecified) | inconclusive: 89.1 µM [inhibitor, single point] |
| Cc1cccc(N/C(=N\S(=O)(=O)c2ccccc2)C(F)(F)F)c1 | inconclusive: 79.4 µM [inhibitor, single point] |

Reference: PubChem BioAssay AID504333 (National Center for Advancing Translational Sciences (NCATS), 2011)
